About 60 (0.1%) of roughly 46,000 compounds were called active. Another 3% or so got no clear call; they are omitted. Calls come from the whole dose curve; as a rule, active = well fitted inhibition curve with a large enough effect; inconclusive = small, poorly fitted or top-dose-only effect; inactive = no such curve, though single readings can be large or run the other way. The list shows a part of the results.
experiment: Primary qHTS assay for Inhibitors of ovarian cancer metastasis using an organotypic tumor microenvironment (TME) model.; note: nearly all actives have a fitted effect of over 65% in size;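 for activity change, negative = inhibition: plate controls were DMSO wells for no effect and tomatine positive control wells for full effect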; conditions: SKOV3ip1-GFP adhesion/invasion on 3D omental model, fluorescence; series mostly up to 45.8 µM; activity change, negative = inhibition: at the top concentration
How it was run: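 Primary human omental fibroblast/mesothelial 3D culture pre-formed 48 h. SKOV3ip1-GFP cells added with compounds (0.36-46 umol/L), incubated 2 h RT/16 h 37 C, fixed; GFP cells quantified at 488/509 nm.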

Activity change, negative = inhibition, inactive:
CCOc1cc(N2CCC(O)CC2)ccc1Nc1ncc2c(n1)N(C)c1ccccc1C(=O)N2C 3.9%, COC(=O)c1ccc(C(=O)OC)c(NC(=O)c2ccc(-c3ccccc3)s2)c1 1.62%, COc1ccccc1CNC(=O)c1ccc2nc(CCc3ccccc3)oc2c1 4.97%, COc1ccc(Cn2c(=O)c3cccnc3n(Cc3cccc(F)c3)c2=O)cc1 6.37%, CCOC(=O)c1c(C)oc2ncnc(Nc3ccc(OC)c(OC)c3)c12 -7.48%, COc1cccc(-c2nc(S(=O)(=O)c3ccc(C)cc3)c(N3CCCCC3)o2)c1 -1.46%, O=C(CSc1ncc(S(=O)(=O)c2ccc(Cl)cc2)c(=O)[nH]1)Nc1cccc(C(F)(F)F)c1 -5.96%, Cc1cccc(C)c1NC(=O)c1sc(-n2nc(C)c(Cc3ccccc3)c2C)nc1C -11.5%, CCOC(=O)c1ccccc1NC(=O)CSc1nccn1Cc1ccco1 2.35%, CC(C)Oc1ccc(C(=O)N(Cc2ccco2)Cc2cccs2)cc1 -3%, COc1ccccc1NC(=O)c1c(C)cc(C)nc1SCC(=O)c1ccc(Cl)cc1 3.14%, CCCS(=O)(=O)NCCc1sc2nc(-c3ccc(F)cc3)nn2c1C 3.02%, Cn1c(=O)[nH]c2cc(-c3noc(-c4ccc(C#N)cc4)n3)ccc21 -6.09%, Cc1cc(C)n(-c2nnc(Nc3ccc(C)c(Cl)c3)c3ccccc23)n1 13.6%, Cc1ccc2c(c1)C(c1ccccc1)N(C(=O)Cc1ccc(F)cc1)CC(=O)N2 (configuration not stated) 3.09%, O=C(c1cccn1-c1nnc(N2CCCC2)s1)N1CCN(c2ccc(Cl)cc2)CC1 18.7%, Cc1ccc(S(=O)(=O)Nc2nc3n(n2)C(c2ccc(F)cc2)C=C(c2ccccc2)N3)cc1 (configuration not stated) -10.7%, CC1=C(C(=O)Nc2ccc(Cl)cc2)C(CC(C)C)n2nc(SCc3ccccc3C)nc2N1 (configuration not stated) -5.67%, O=C(COc1ccc2ccccc2c1)NC1CC(=O)N(c2cccc(F)c2)C1 (configuration not stated) -3.78%, COc1ccc(C2=NC(C)(C)N(CC(=O)Nc3cccc(C)c3)C2=O)cc1 2.49%, COc1ccc(Cn2c(C(=O)O)c(CNCCc3cc(OC)ccc3OC)c3ccc(C)cc32)cc1 5.77%, CC(=O)Nc1ccc(S(=O)(=O)NCC2CCC(C(=O)NCCN(CC(C)C)CC(C)C)CC2)cc1 (configuration not stated) 1.62%, COc1ccccc1CNS(=O)(=O)c1cnc(N)nc1 -15.7%, Cc1nc2ccn(Cc3ccco3)c(=O)c2cc1C(=O)NCc1ccccc1 -5.58%, Cc1ccc(C)c(-n2c(N)c(C#N)c3nc4ccccc4nc32)c1 0.664%, COc1cc(C2C(=O)N(C3CCCCCC3)CC(=O)N2CCc2ccccc2)ccc1OC(C)C (configuration not stated) -7.97%, COc1ccc(NC(=O)c2oc3ccc(S(=O)(=O)N4CCOCC4)cc3c2C)cc1 -27.6%, O=c1oc2ccc3ccccc3c2cc1-c1nnc(Nc2ccc(F)cc2)s1 8.46%, COc1ccc(C2c3c(n(C)c4ccccc34)C(=O)N2CC(=O)Nc2cccc(F)c2)cc1 (configuration not stated) 6.25%, COc1cccc(CNc2cc(C)nc3nc(-c4ccc(C)cc4)nn23)c1 -1.46%, O=C(NCC(c1ccco1)S(=O)(=O)c1cccs1)c1ccccc1F (configuration not stated) -2.96%, Cc1ccc(-n2nc3c(=O)n(C(C)C(=O)NCc4ccco4)nc(C)c3c2C)cc1 (configuration not stated) -9.95%, Oc1c(C(c2ccccc2)N2CCC(O)CC2)sc2nc(-c3ccco3)nn12 (configuration not stated) -7.93%, CCn1ccc2c(OCC(=O)Nc3ccccc3C(F)(F)F)cccc2c1=O -10.6%, C[C@@H](Oc1ccc2[nH]nc(C=Cc3cnn(CCO)c3)c2c1)c1c(Cl)cncc1Cl 2.52%, COc1ccc(NS(=O)(=O)c2ccc3[nH]c4c(c3c2)CCCC4)cc1OC 2.62%, CCCCOc1cccc(C(=O)N(Cc2ccc(C)o2)c2ccccn2)c1 -4.69%, CCOc1ccc(CCNC(=O)c2cnc3sc(N4CCCC4)nn3c2=O)cc1 -8.47%, CN(Cc1ccccc1)C(=O)c1nc(-c2ccc(Cl)cc2)n2c1CCCCC2 1.16%, CC1N=C2c3ccccc3N=C(SCC(=O)NCCc3ccccc3)N2C1=O (configuration not stated) 5.93%, CCOC(=O)C(C)Sc1ccc2nnc(CCNS(=O)(=O)c3ccccc3)n2n1 (configuration not stated) -7.47%, CC(=O)Nc1ccc(NC(=O)c2ccc3c(c2)N(Cc2cccc(Cl)c2)C(=O)c2ccccc2S3(=O)=O)cc1 2.77%, CCn1c(CN2CCCCC2)nc2cc(NC(=O)c3cc(OC)c(OC)c(OC)c3)ccc21 -9.53%, Cc1ccc(C)c(NC(=O)c2ccc(CN3CC(=O)N4CCCCC4C3=O)cc2)c1 (configuration not stated) -0.7%, COc1ccccc1CNC(=O)C1CCN(S(=O)(=O)c2ccc3c(c2)CCCN3C(C)=O)CC1 -0.827%, CCc1ccc(CNC(=O)c2cc3c(=O)n(Cc4cccs4)ccc3nc2C)cc1 -1.1%, COc1cccc(N2CCN(C(=O)CCCCCn3c(=O)[nH]c4ccccc4c3=O)CC2)c1 -5.52%, CCc1nc2nc(C)c(NS(=O)(=O)c3ccc(C)cc3)c(=O)n2[nH]1 2.05%, COc1ccc(Cn2ccc3nc(C)c(C(=O)N4CCN(c5ccc(OC)cc5)CC4)cc3c2=O)cc1 -10.6%, CN(C)CCNC(=O)C(=O)NCC(c1cccnc1)N1CCN(c2ccc(F)cc2)CC1 (configuration not stated) -16.4%, Cc1ccc(S(=O)(=O)N(C)Cc2nc(-c3ccccc3)oc2C)cc1 -2.96%

outcome, inactive:
COc1ccc(-c2nc(SCC(=O)Nc3c(C)cc(C)cc3C)n[nH]2)cc1, COc1ccc(-c2cc3nc(C)c(CCC(=O)NC4CCCCC4)c(C)n3n2)c(OC)c1, COc1cc(C2Nc3c(C)cc(C)cc3-c3cc(C)nn32)cc(OC)c1O (configuration not stated), CN(C)C(=O)c1c(NC(=O)c2ccccc2F)sc2c1CCCC2, Cc1ccc(N2CC(C)Cn3c2nc2c3c(=O)n(Cc3cccc(Cl)c3)c(=O)n2C)cc1 (configuration not stated), CCCc1cc(=O)[nH]c2nnc(SCC)n12, Cc1ccc(Cl)cc1N1CCN(CCCNC(=O)c2ccc3nc(N4CCCCC4)sc3c2)CC1, COC(=O)CC1Oc2ccc(Cl)cc2-n2cc(-c3ccccc3)nc21 (configuration not stated), O=C(NC1(C(F)(F)F)NC(=O)N(CCc2ccccc2)C1=O)c1ccc(Cl)cc1 (configuration not stated), CCC(C(=O)NC1CCC(C)CC1)n1nc(C)c2sc3ccccc3c2c1=O (configuration not stated), CCOc1ccccc1NC(=O)Cn1nnc(C(=O)NCc2ccc(F)cc2)c1N
